# Results reported in PMC9352240.
# Biological target: recombinant full-length wild-type human tau isoform 0N4R (human) (UniProt P10636)
# Experiment: thioflavin T fluorescence aggregation kinetics; self-aggregation of recombinant tau alone; 30 uM tau, 60 ug/ml heparin, 10 uM ThT, 20 mM Tris pH 7.4, 37°C; t1/2 = time to half maximum ThT intensity
substance,measurement,value
"recombinant full-length wild-type human tau isoform 0N4R (a stretch of the chain, letters omitted) (natural protein; other documents disagree on this pair)",t1/2 of self-aggregation (ThT fluorescence),14.7 h
